{"source": "PubChem BioAssay AID1030", "about": "(National Center for Advancing Translational Sciences (NCATS), 2008)", "note": "In all, about 220,000 compounds went through this assay and about 16,000 (7.3%) were called active. The shares of active, inactive and inconclusive entries below differ from those in the screen. Calls come from the whole dose curve; as a rule, active = well fitted inhibition curve with a large enough effect (not every such curve was filed as active); inconclusive = small, poorly fitted or top-dose-only effect, or another doubt; inactive = no such curve, though single readings can be large or run the other way. Potencies of inconclusive entries are left out as doubtful fits. Potency is the fitted concentration of half-maximal effect; tags give direction and shape of the fitted curve.", "data": [{"biological_target": "Aldehyde dehydrogenase 1A1 (Homo sapiens) (UniProt P00352)", "sequence (P00352 whole entry, looked up)": "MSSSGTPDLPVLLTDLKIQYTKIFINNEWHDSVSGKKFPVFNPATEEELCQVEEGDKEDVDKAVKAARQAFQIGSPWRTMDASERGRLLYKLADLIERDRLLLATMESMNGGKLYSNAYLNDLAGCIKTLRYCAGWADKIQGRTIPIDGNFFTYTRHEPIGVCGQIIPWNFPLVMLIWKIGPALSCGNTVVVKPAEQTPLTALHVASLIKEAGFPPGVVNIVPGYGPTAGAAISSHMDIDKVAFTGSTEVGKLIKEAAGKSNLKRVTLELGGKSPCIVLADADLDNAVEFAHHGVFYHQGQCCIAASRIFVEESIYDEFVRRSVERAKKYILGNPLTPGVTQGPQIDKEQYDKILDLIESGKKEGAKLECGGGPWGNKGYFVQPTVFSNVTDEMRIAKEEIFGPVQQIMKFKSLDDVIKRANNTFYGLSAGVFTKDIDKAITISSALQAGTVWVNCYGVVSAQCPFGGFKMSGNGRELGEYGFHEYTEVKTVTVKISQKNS", "test": "qHTS Assay for Inhibitors of Aldehyde Dehydrogenase 1 (ALDH1A1)", "conditions": "Purified ALDH1A1, NADH fluorescence, propionaldehyde substrate; series mostly up to 75.3 µM", "values": [{"smiles": "CCOC(=O)c1c(N)sc2c1CCCC2", "Potency": "active: 20 µM"}, {"smiles": "O=C1CCCC2=C1C(c1ccc(OS(=O)(=O)c3ccc(Cl)cc3)cc1)C1=C(CCCC1=O)O2", "Potency": "inconclusive [inhibitor, partial curve]"}, {"smiles": "COC(=O)c1ccc(-c2ccco2)n1Cc1nc(-c2ccc(OC)c(OC)c2)oc1C", "Potency": "active: 7.94 µM"}, {"smiles": "O=C(Nc1nnc(C2CC2)s1)C1Cc2ccccc2CN1C(=O)c1ccco1", "note": "(stereo not given)", "Potency": "inconclusive [inhibitor, single point]"}, {"smiles": "Cc1ccc(-n2nnnc2C(Cl)(Cl)c2nnnn2-c2ccc(C)cc2)cc1", "Potency": "active: 1.26 µM"}, {"smiles": "CCOc1ccc(/C=C/C(=O)c2cccs2)cc1", "Potency": "inconclusive [inhibitor, partial curve]"}, {"smiles": "CC(C)C(=O)Nc1ccc(-c2nc3cccnc3o2)cc1", "Potency": "inconclusive [inhibitor, partial curve]"}, {"smiles": "COc1cccc2cc(C(=O)NNC(=O)c3ccc(Br)cc3)c(=O)oc12", "Potency": "inconclusive [inhibitor, single point]"}, {"smiles": "COc1cccc(C(=O)NC(=S)Nc2ccccc2N2CCCC2)c1", "Potency": "inconclusive [inhibitor, single point]"}, {"smiles": "Cc1ccccc1/C=C/c1nc2ccccc2c(=O)n1Cc1ccccc1", "Potency": "inconclusive [inhibitor, single point]"}, {"smiles": "Nc1ccc(S(=O)(=O)Nc2ccnn2-c2ccccc2)cc1", "Potency": "inactive"}, {"smiles": "Cc1cc(C)n(-c2nc3ccccc3nc2NCCc2ccccc2)n1", "Potency": "inconclusive [inhibitor, single point]"}, {"smiles": "CC(NC(=O)C1CCCN(S(=O)(=O)c2cccc3nonc23)C1)c1ccccc1", "note": "(stereo not given)", "Potency": "inconclusive [inhibitor, single point]"}, {"smiles": "COc1ccc(C=O)cc1Cn1c(C)cc(C)c(C#N)c1=O", "Potency": "inconclusive [inhibitor, single point]"}, {"smiles": "C=C(C(=O)OC)C(NC(=O)OC)c1ccccc1", "note": "(stereo not given)", "Potency": "inactive"}, {"smiles": "Cc1[nH]n2c(=O)cc(C(C)(C)C)nc2c1-c1ccccc1", "Potency": "inconclusive [inhibitor, partial curve]"}, {"smiles": "Cc1ccc2c(c1)N(Cc1ccc3c(c1)OCO3)C(=O)C(C)O2", "note": "(stereo not given)", "Potency": "inconclusive [inhibitor, single point]"}, {"smiles": "COc1ccc(C(=O)N/N=C/c2ccc(OC)c(CSc3ccccn3)c2)cc1", "Potency": "inconclusive [inhibitor, single point]"}, {"smiles": "COc1cc(Cl)cc2c1Sc1ccccc1/C2=C/CCN(C)C", "Potency": "inconclusive [inhibitor, single point]"}, {"smiles": "CCOc1ccc(-n2c(=S)sc3c(=O)[nH]c(SCC(=O)C(C)(C)C)nc32)cc1", "Potency": "active: 7.08 µM"}, {"smiles": "O=C(O)c1cccc(NC(=O)c2ccc3c(c2)C(=O)N(Cc2ccco2)C3=O)c1", "Potency": "inconclusive [inhibitor, partial curve]"}, {"smiles": "COc1ccccc1C1C(C#N)=C(N)N(c2cccnc2)C2=C1C(=O)CC(C)(C)C2", "note": "(stereo not given)", "Potency": "inactive"}, {"smiles": "COC(=O)c1ccc(C23CC4(C2)[C@H](CN(C)[C@@H]4c2ccccc2)C3c2ccc(Cl)nc2)cc1", "note": "(stereo not given in full)", "Potency": "inactive"}, {"smiles": "Cc1cc2cc(C(c3nnnn3C3CCCC3)N(Cc3cccnc3)Cc3ccco3)c(=O)[nH]c2cc1C", "note": "(stereo not given)", "Potency": "active: 14.1 µM"}, {"smiles": "CCN(CC)c1ccc(NC(=O)CSc2nnc3nc(C)cc(C)n23)cc1", "Potency": "inconclusive [inhibitor, single point]"}, {"smiles": "COc1ccc(NC(=O)c2cncc(Br)c2)cc1S(=O)(=O)N1CCCCC1", "Potency": "inactive"}, {"smiles": "COc1ccccc1C1CC(=O)Oc2cc3c(cc21)OCO3", "note": "(stereo not given)", "Potency": "inconclusive [inhibitor, single point]"}, {"smiles": "Cc1ccc(O)c(C(=O)c2cnn(C(=O)COc3ccc(Cl)cc3)c2)c1", "Potency": "active: 1.78 µM"}, {"smiles": "CCCNC(=O)c1ccc2snnc2c1", "Potency": "inconclusive [inhibitor, single point]"}, {"smiles": "CCOC(=O)Cc1cc(=O)n2[nH]c(-c3ccccc3)cc2n1", "Potency": "inconclusive [inhibitor, single point]"}, {"smiles": "CCNc1ncc2nc(C)c(=O)n(CCOC)c2n1", "Potency": "inconclusive [inhibitor, partial curve]"}, {"smiles": "COc1ccc(CC(=O)NC2CCN(CC(=O)N3CCCc4ccccc43)CC2)cc1OC", "Potency": "inconclusive [inhibitor, partial curve]"}, {"smiles": "CC(=O)c1c(C)n(-c2ccc(N(C)C)cc2)c2ccc(OCC(N)=O)cc12", "Potency": "inconclusive [inhibitor, single point]"}, {"smiles": "COC(=O)CSc1ccc2nnc(-c3ccc(OC)c(OC)c3)n2n1", "Potency": "inactive"}, {"smiles": "O=C(N/N=C/c1cccs1)C1CC(=O)N(c2ccccc2)C1", "note": "(stereo not given)", "Potency": "inconclusive [inhibitor, single point]"}, {"smiles": "CN(Cc1nc(-c2ccc(C(F)(F)F)cc2)no1)C1CCOCC1", "Potency": "inactive"}, {"smiles": "COc1ccc(C(=O)Nc2ccccc2C(=O)NC(Cc2ccc(O)cc2)C(=O)NNC(=O)c2ccc(C)cc2)cc1", "note": "(stereo not given)", "Potency": "inconclusive [inhibitor, partial curve]"}, {"smiles": "NS(=O)(=O)c1ccc(NC(=O)COC(=O)c2cc([N+](=O)[O-])ccc2Cl)cc1", "Potency": "inactive"}, {"smiles": "CCCCCC(=O)c1cc(CC(C(=O)OC)C(=O)OC)cc2cc(OC)c(OC)cc12", "Potency": "inconclusive [inhibitor, partial curve]"}, {"smiles": "CC1CC(C)CN(CCCCOc2ccc([N+](=O)[O-])cc2)C1", "note": "(stereo not given)", "Potency": "inactive"}, {"smiles": "Cc1ccc(C2C(C#N)=C(N)Oc3n[nH]c(-c4cccs4)c32)s1", "note": "(stereo not given)", "Potency": "inactive"}, {"smiles": "C=CCSc1nc2sc3c(c2c(=O)n1CC)CCc1ccccc1-3", "Potency": "active: 1.58 µM"}, {"smiles": "COc1ccc(Cl)cc1C(=O)C1CCCN(Cc2cnc(N3CCOCC3)s2)C1", "note": "(stereo not given)", "Potency": "inconclusive [inhibitor, partial curve]"}, {"smiles": "Cc1ccc(SC(CC(=O)c2ccc(C)cc2)C(=O)O)cc1", "note": "(stereo not given)", "Potency": "active: 0.126 µM"}, {"smiles": "Cc1ccccc1-c1nc(N2CCN(C)CC2)c2ccccc2n1", "Potency": "inconclusive [inhibitor, single point]"}, {"smiles": "O=C(O)c1ccc(/C=N/Nc2ccc(S(=O)(=O)N3CCCC3)cc2[N+](=O)[O-])cc1", "Potency": "inconclusive [inhibitor, single point]"}, {"smiles": "CN(C)c1ccc(CNC2CC(C)(C)NC(C)(C)C2)cc1", "Potency": "inconclusive [inhibitor, partial curve]"}, {"smiles": "O=C(COC(=O)c1ccccc1Nc1ccccc1)Nc1ccccc1", "Potency": "inconclusive [inhibitor, partial curve]"}, {"smiles": "CCCC(=O)Nc1cc(C(F)(F)F)ccc1N1CCOCC1", "Potency": "active: 3.16 µM"}, {"smiles": "CCSc1nnc(NC(=O)CCc2ccc(OC)cc2)s1", "Potency": "inconclusive [inhibitor, partial curve, poor fit]"}, {"smiles": "COc1ccccc1N1CCN(C(=O)c2cc(C(C)(C)C)oc2C)CC1", "Potency": "inconclusive [inhibitor, single point]"}, {"smiles": "Cc1ccccc1CSCC(=O)NCc1ccco1", "Potency": "active: 15.8 µM"}, {"smiles": "Fc1ccccc1/C=C1\\CCCC2=C1NC(=S)NC2c1ccccc1F", "note": "(stereo not given)", "Potency": "active: 0.794 µM"}, {"smiles": "COc1ccc(COc2cc(-c3cccc(OC)c3)nc3ccc(NC(=O)C(C)C)cc23)cc1", "Potency": "inconclusive [inhibitor, single point]"}, {"smiles": "CN1CCN(CCNC(=O)Nc2ccc([N+](=O)[O-])cc2)CC1", "Potency": "inconclusive [inhibitor, single point]"}, {"smiles": "Cc1ccc(Cn2c(SCC(N)=O)nc3c2c(=O)n(C)c(=O)n3C)cc1", "Potency": "inconclusive [inhibitor, single point]"}, {"smiles": "COCCn1c(=O)c(C)nc2cnc(N3CCNCC3)nc21", "Potency": "inconclusive [inhibitor, partial curve]"}, {"smiles": "COC(=O)C/C=C\\[C@@H](C)[C@@H](/C=N\\O[C@@H](C)CN1CCCc2nc(C)c(C)cc21)OC", "Potency": "inconclusive [inhibitor, single point]"}, {"smiles": "NC(=S)N/N=C/c1coc2ccc(O)cc2c1=O", "Potency": "inconclusive [inhibitor, single point]"}, {"smiles": "Clc1cccc(-c2nn3c(Cn4cnc5ccccc54)nnc3s2)c1", "Potency": "active: 10 µM"}, {"smiles": "O=Cc1cn(CCC(=O)O)nc1-c1cc2ccccc2o1", "Potency": "inconclusive [inhibitor, single point]"}, {"smiles": "Cc1sc2ncnc(NCc3ccco3)c2c1C", "Potency": "inconclusive [inhibitor, single point]"}, {"smiles": "CCOC(=O)c1c(NC(=O)CNCCO)sc(C)c1C", "Potency": "inconclusive [inhibitor, single point]"}, {"smiles": "C/C(=N/NS(=O)(=O)c1ccc(Br)cc1)c1ccc(C)o1", "Potency": "inconclusive [inhibitor, partial curve]"}, {"smiles": "Fc1c(F)c(F)c(N=Cc2ccc3ncccc3c2)c(F)c1F", "Potency": "active: 8.91 µM"}, {"smiles": "C=CC(C)(O)CC1[C@@]2(C)CCCC(C)(C)C2CC[C@]1(C)O", "note": "(stereo not given in full)", "Potency": "inactive"}, {"smiles": "COc1ccccc1-n1c(SCC(=O)Nc2cccc(C)c2)nc2c(c1=O)SCC2", "Potency": "inconclusive [inhibitor, partial curve]"}, {"smiles": "Cc1nnc2sc(-c3ccc(-c4ccc(Cl)c(C(F)(F)F)c4)o3)nn12", "Potency": "inconclusive [inhibitor, partial curve]"}, {"smiles": "CCOCCCNC(=O)C1CCC(CNS(=O)(=O)c2ccc(Cl)cc2)CC1", "note": "(stereo not given)", "Potency": "inconclusive [inhibitor, partial curve]"}, {"smiles": "COc1ccc(-n2cccc2/C=C2\\C(=N)N3N=C(c4ccco4)SC3=NC2=O)cc1", "Potency": "inconclusive [inhibitor, partial curve, poor fit]"}]}]}
